Reference: PubChem BioAssay AID1476 (National Center for Advancing Translational Sciences (NCATS), 2009)
In all, about 200,000 compounds went through this assay and about 4,500 (2.2%) were called active. The shares of active, inactive and inconclusive entries below differ from those in the screen. The call rests on the fitted dose curve; in most records, active means well fitted inhibition curve with a large enough effect; inconclusive means small, poorly fitted or top-dose-only effect, or effect the other way; inactive means flat fitted curve, though single readings scatter. A potency beside an inconclusive call is a rough fit, not a confirmed value.
Further: nearly all actives have a fitted effect of over 40% in size.
Potency means the concentration at half of the fitted maximal effect; tags describe the fitted curve by direction and shape.
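Wherever max response, negative = inhibition is given: plate controls were enzyme without inhibitor for no effect and buffer without enzyme for full effect.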

The compounds below were run against Cruzipain (Trypanosoma cruzi) (UniProt P25779) (assay: qHTS Assay for Promiscuous and Specific Inhibitors of Cruzain (without detergent)). Conditions: purified cruzain, Z-FR-AMC fluorescence, no detergent.
Sequence of UniProt P25779 (P25779 whole entry, looked up): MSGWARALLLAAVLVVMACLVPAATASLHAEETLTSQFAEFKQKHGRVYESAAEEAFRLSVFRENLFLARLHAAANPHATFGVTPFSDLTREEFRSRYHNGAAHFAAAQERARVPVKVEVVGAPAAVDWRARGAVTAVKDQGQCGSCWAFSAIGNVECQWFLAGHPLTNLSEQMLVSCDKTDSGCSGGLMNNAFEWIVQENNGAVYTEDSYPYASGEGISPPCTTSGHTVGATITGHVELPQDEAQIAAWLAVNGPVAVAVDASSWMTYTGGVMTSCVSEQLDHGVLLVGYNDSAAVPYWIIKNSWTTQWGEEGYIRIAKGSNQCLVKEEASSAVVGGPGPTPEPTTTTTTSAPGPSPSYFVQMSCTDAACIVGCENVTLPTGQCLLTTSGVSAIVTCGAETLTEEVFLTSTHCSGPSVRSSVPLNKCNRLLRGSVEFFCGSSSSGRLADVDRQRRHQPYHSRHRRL
Outline: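 Purified cruzain at 1.5 nM, pre-incubated 15 min with compound at room temperature in 100 mM sodium acetate pH 5.5, 5 mM DTT, 0.00005% Triton X-100. Reaction started with 2 uM Z-FR-AMC; AMC fluorescence increase over 60 s gives rate.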
In the case of `CC(C)C[C@H](NC(=O)[C@@H]1O[C@H]1C(=O)O)C(=O)NCCCCN=C(N)N`, the Potency is reported as active: 0.0316 µM.
For `Cc1cc([N+](=O)[O-])ccc1-c1ccc(/C=N/NC(=O)Cc2ccccc2)o1`, the Potency was inconclusive: 31.6 µM [inhibitor, single point].
`O=C(CC1(O)C(=O)N(C/C=C/c2ccccc2)c2ccccc21)c1ccccn1` (stereo unspecified) was tested, and the Potency was inconclusive: 25.1 µM [activator, single point].
In the case of `COCCNc1oc(/C=C/c2ccc(F)cc2)nc1C#N`, the Potency is reported as active: 20 µM.
`C/C(CC(=O)Nc1ccccn1)=N\NC(=O)C(=O)Nc1cccc(Cl)c1C` was tested, and the Potency was inconclusive: 25.1 µM [inhibitor, single point].
For `CCOC(=O)c1ccc(CN(Cc2ccccc2C)S(=O)(=O)c2ccc(F)c(C)c2)cc1`, the Potency was inconclusive: 0.0794 µM [inhibitor, single point].
With `O=C(Cc1cn2ccsc2n1)Nc1nc2c(s1)CN(Cc1ccccc1)CC2` the Potency was inconclusive: 31.6 µM [inhibitor, single point].
`CCOC(=O)N1CCC(NC(=O)c2cc3cc4cc(OC)ccc4nc3o2)CC1` was tested, and the Potency was inconclusive: 31.6 µM [activator, partial curve].
With `Cc1cc(C)cc(-n2c(SCC(N)=O)nc3c([nH]c4ccccc43)c2=O)c1` the max response, negative = inhibition was inactive: -16.1%.
For `COc1ccc(N=C2SC(C(=O)O)CC(=O)N2Cc2ccc(OC)c(OC)c2)cc1` (stereo unspecified), the Potency was inconclusive: 31.6 µM [activator, single point].
In the case of `CC(C)(C)NC(=O)c1ccc2c(c1)N(CC(=O)N1CCN(c3ccccc3F)CC1)C(=O)C(C)(C)O2`, the Potency is reported as inconclusive: 25.1 µM [activator, single point].
With `Cc1ccccc1CSc1cn(CC(=O)N2CCCCCC2)c2ccccc12` the max response, negative = inhibition was inactive: -8.19%.
`Cc1cccn2c(=O)c(C(=O)NCCc3ccc(S(N)(=O)=O)cc3)c(O)nc12` was tested, and the max response, negative = inhibition was inactive: -13.5%.
For `CCc1ccc2oc(C(=O)Nc3ccccc3C(=O)OC)cc(=O)c2c1`, the max response, negative = inhibition was inactive: -3.1%.
In the case of `Cc1cccc(N2CCN(C(=O)Cn3nc(Cc4cccnc4)c4ccccc4c3=O)CC2)c1C`, the Potency is reported as inconclusive: 39.8 µM [activator, single point].
With `CCOC(=O)c1c(-c2ccc(C)o2)csc1NC(=O)CN1CCOCC1` the Potency was inconclusive: 39.8 µM [activator, single point].
With `COc1ccc(C2NC(=S)NC3=C2CCc2cc(OC)ccc23)cc1` (stereo unspecified) the Potency was inconclusive: 31.6 µM [inhibitor, single point].
With `COc1ccc(CNC(=O)Cn2c(=O)cc(-c3ccccc3)c3c(C)nn(C)c32)cc1` the max response, negative = inhibition was inconclusive: 36.3% [activator].
In the case of `CCCCC#Cc1nc(N)c2ncn([C@@H]3O[C@H](C(=O)NCC)[C@@H](O)[C@H]3O)c2n1`, the Potency is reported as inconclusive: 31.6 µM [activator, single point].
For `O=C(CCCOc1ccc(Cl)cc1)Nc1nncs1`, the Potency was inconclusive: 25.1 µM [inhibitor, single point].
With `Cc1nc(NC(=O)c2ccccc2)sc1-c1csc(NCc2ccccc2)n1` the Potency was inconclusive: 39.8 µM [inhibitor, single point].
With `Cc1ccc2occ(CC(=O)N(Cc3ccc(C(C)C)cc3)C3CCS(=O)(=O)C3)c2c1` (stereo unspecified) the Potency was inconclusive: 25.1 µM [activator, single point].
With `CNc1cc(-c2ccccc2C(F)(F)F)ncn1` the max response, negative = inhibition was inactive: 14.7%.
`COc1ccc(Cl)cc1NC(=O)CSc1cn(CC(=O)N2CCCCCC2)c2ccccc12` was tested, and the Potency was inconclusive: 20 µM [inhibitor, single point].
For `COc1ccc(CCn2c(C)cc(C(=O)CSc3nnc(N)s3)c2C)cc1`, the Potency was inconclusive: 31.6 µM [inhibitor, single point].
For `CCOc1ccc(C(CCc2ccccc2)NC(=O)c2ccccc2)cc1OCC` (stereo unspecified), the Potency was inconclusive: 39.8 µM [activator, single point].
`COc1cc(NC(=O)C(CCSC)NS(=O)(=O)c2ccc3c(c2)oc(=O)n3C)cc(OC)c1` (stereo unspecified) was tested, and the max response, negative = inhibition was inactive: 1.61%.
`Cc1ccc(-c2nnc3ccccc3c2C(=O)Nc2ccccc2F)cc1` was tested, and the Potency was active: 25.1 µM.
In the case of `Cc1ccc(NC(=O)Cn2c(=O)n(CCC(=O)NCc3ccccc3Cl)c(=O)c3ccccc32)cc1`, the max response, negative = inhibition is reported as inactive: 21.3%.
`O=c1c(-c2cccs2)nc2cnc(Nc3ccccc3)nc2n1C[C@H]1CCCO1` was tested, and the max response, negative = inhibition was inactive: 2.4%.
`COc1cccc(C(=O)/C=C/Nc2ccc(S(=O)(=O)Nc3ncccn3)cc2)c1` was tested, and the Potency was inconclusive: 25.1 µM [inhibitor, single point].
In the case of `CCCC1=NN2C(=N)/C(=C\c3cc(C)n(-c4cc(C)cc(C)c4)c3C)C(=O)N=C2S1`, the Potency is reported as inconclusive: 39.8 µM [inhibitor, single point].
With `CC1CCN(S(=O)(=O)c2nnc(NC(=O)c3cccc(Br)c3)s2)CC1` the max response, negative = inhibition was inactive: -8.51%.
`CCNC(=S)NNC(=O)c1cc(-c2ccc(OCC)cc2)nc2ccccc12` was tested, and the Potency was inconclusive: 31.6 µM [activator, single point].
In the case of `COc1cc2c(cc1OC)CN(C(=O)CSc1nc3[nH]ncc3c(=O)n1-c1ccccc1)CC2`, the Potency is reported as inconclusive: 39.8 µM [activator, single point].
`COc1ccc(-c2cc(C(=O)N3CCc4ccccc4C3)no2)cc1OC` was tested, and the Potency was inconclusive: 39.8 µM [activator, single point].
In the case of `Cc1ccccc1NC1=C(C(=O)c2ccccc2)N(C)S(=O)(=O)c2ccccc21`, the Potency is reported as inconclusive: 31.6 µM [inhibitor, single point].
With `Cn1c(=O)[nH]c(=O)c2c1nc(CN1CCN(c3ccccc3F)CC1)n2CCCc1ccccc1` the Potency was inconclusive: 39.8 µM [activator, single point].
For `COc1ccc(N(CC(=O)N2CCCCC2)S(=O)(=O)c2ccc(OC)c(OC)c2)cc1`, the Potency was inconclusive: 25.1 µM [activator, single point].
`CCCc1ccc(OCc2ccc(C(=O)Nc3ccccc3C(=O)OC)o2)cc1` was tested, and the Potency was inconclusive: 39.8 µM [inhibitor, single point].
For `O=C(c1ccc(Br)cc1)N(Cc1ccco1)c1ccccn1`, the max response, negative = inhibition was inactive: -7.09%.
